# From a compilation of properties of binary mixtures (doi:10.1016/j.fluid.2022.113559)
# The densities may have been worked out from excess volumes.
# Test: xn = mol fraction of the nth substance listed
# Details: 101 kPa, x1 = 0.3333
SMILES,mass density (283.15 K),mass density (298.15 K),mass density (303.15 K),mass density (308.15 K),mass density (318.15 K),mass density (323.15 K),mass density (328.15 K),mass density (333.15 K),mass density (338.15 K),mass density (343.15 K),mass density (353.15 K),mass density (288.15 K),mass density (313.15 K),mass density (348.15 K)
CCOS(=O)(=O)[O-].CC[n+]1ccn(C)c1 + CS(C)=O,1159 kg/m3,1145.8 kg/m3,1141.4 kg/m3,1137 kg/m3,1128.2 kg/m3,1123.8 kg/m3,1119.4 kg/m3,1115 kg/m3,1110.5 kg/m3,1106.1 kg/m3,1097.3 kg/m3,,,
CC[n+]1ccn(C)c1.N#C[S-] + CS(C)=O,1124.5 kg/m3,1112.2 kg/m3,1108.1 kg/m3,,1095.8 kg/m3,1091.7 kg/m3,,1083.5 kg/m3,1079.4 kg/m3,1075.3 kg/m3,1067.1 kg/m3,1120.4 kg/m3,1099.9 kg/m3,1071.2 kg/m3
